According to PMC4336329 (PLoS ONE, 2015):
Among all 310,000 compounds or so, about 14,000 (4.5%) showed an effect of 50% or more. The effect is printed as a negative number. This is one part of the list.

target: human ether-à-go-go-related gene (hERG) potassium channel (human, UniProt Q12809); assay: primary screen, population patch clamp on CHO cells stably expressing hERG
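Note: peak tail current of the secondary pulse compared with the same well before compound.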

Sequence of human ether-à-go-go-related gene (hERG) potassium channel (Q12809 whole entry, looked up): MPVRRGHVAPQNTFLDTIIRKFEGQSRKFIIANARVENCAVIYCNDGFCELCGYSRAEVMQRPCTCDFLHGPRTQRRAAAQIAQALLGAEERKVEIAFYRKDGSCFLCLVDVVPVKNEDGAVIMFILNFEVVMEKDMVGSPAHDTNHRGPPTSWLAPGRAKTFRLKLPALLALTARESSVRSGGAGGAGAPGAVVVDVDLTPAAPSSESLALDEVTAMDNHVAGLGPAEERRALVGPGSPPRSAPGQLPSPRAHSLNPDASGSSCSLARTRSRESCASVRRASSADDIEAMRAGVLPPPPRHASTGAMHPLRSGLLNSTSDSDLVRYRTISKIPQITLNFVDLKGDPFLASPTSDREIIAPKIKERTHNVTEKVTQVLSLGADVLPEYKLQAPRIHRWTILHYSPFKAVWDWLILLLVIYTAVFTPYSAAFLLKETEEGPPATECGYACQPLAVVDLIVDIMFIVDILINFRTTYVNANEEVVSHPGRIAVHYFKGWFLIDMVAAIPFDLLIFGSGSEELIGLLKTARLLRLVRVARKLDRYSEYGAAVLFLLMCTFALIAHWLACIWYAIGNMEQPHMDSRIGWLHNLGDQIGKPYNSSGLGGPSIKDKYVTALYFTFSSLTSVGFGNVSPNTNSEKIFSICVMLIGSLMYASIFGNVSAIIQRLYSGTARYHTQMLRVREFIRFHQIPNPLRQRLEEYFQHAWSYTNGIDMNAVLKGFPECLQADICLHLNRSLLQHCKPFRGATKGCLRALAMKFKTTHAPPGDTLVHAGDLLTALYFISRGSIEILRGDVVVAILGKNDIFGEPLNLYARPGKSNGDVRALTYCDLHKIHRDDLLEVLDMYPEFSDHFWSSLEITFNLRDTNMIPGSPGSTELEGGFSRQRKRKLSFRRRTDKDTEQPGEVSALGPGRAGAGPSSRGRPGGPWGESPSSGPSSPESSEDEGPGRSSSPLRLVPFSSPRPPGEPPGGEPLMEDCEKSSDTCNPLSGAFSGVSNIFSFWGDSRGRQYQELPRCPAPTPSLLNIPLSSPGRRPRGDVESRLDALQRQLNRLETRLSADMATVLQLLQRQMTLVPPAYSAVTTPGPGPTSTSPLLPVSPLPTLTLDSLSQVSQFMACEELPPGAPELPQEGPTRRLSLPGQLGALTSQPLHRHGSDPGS

SMILES	hERG current change (%, negative = inhibition) at 10uM [%]
Cc1cccc(CCNC(=O)CC2C(=O)NCCN2Cc2ccccc2C)n1 (stereo not shown)	11.6
CC(=O)N1CCN(c2ccccc2NC(=O)Cc2ccc(Cl)cc2)CC1	-64.8
CC1CCN(Cc2nnnn2CCCC(=O)NCCc2cnn(C)c2)CC1	7.62
CCNC(=S)/C(=C(/[O-])c1ccc([N+](=O)[O-])cc1)[n+]1ccccc1	19.4
O=C(NC1CCN(C(=O)Nc2cccc(Cl)c2)CC1)C1CCCCC1	13.1
CCC(C)(C)NC(=O)CN(C(=O)c1csnn1)c1ccccc1-c1ccccc1	9.75
Cc1cnc(=O)[nH]c1SCc1ccccc1F	14.5
CCCCN(CCCC)C(=S)N/N=C/c1c(C)[nH]n(-c2ccccc2)c1=O	12.2
CC(Cc1ccccc1)NC(=O)CCCN1C(=O)c2ccccc2C1=O (stereo not shown)	-11.8
CNC(=O)NC(=O)COC(=O)c1ccccc1OCc1ccccc1	2.01
Cc1nn(-c2ccccc2)c(C)c1C(=O)OCC(=O)Nc1ccccc1	-7.85
Cc1ccc(S(=O)(=O)N2CCCC2)cc1C(=O)NCc1ccccn1	5.54
Cn1c(CSc2ncccn2)nnc1SCC(=O)N1CCCCCC1	42.2
CC(CN1C(C)CCCC1C)OC(=O)c1ccc(Cl)cc1 (stereo not shown)	-44.8
CC(C)(C)c1nnc2sc(SCCN3C(=O)c4ccccc4C3=O)nn2c1=O	-1.17
Cc1ccn2cc(CNS(=O)(=O)c3ccc4c(c3)OCCO4)nc2c1	-3.84
CCOc1ccc(S(=O)(=O)Nc2ccccc2C(=O)N(C)C2CCN(C)CC2)cc1	3.89
CC[C@@]1(O)C(=O)OCc2c1cc1n(c2=O)Cc2cc3ccccc3nc2-1	7.07
CCc1nnc(NC(=O)CSc2nnc(CSc3nc(C)cc(C)n3)n2C)s1	7.01
Cc1nn2c(C)c(C(=O)Nc3ccccc3)cnc2c1C#N	10.7
O=C(NCc1ccccn1)c1c(O)c2c([nH]c1=O)CCCC2	10.5
CC(/C=C/c1ccc2c(c1)OCO2)=N/NC(=O)c1ccncc1	-11.1
O=C(Nc1ccc2c(c1)OCO2)c1ccc(=O)[nH]n1	-4.18
CCOC(=O)c1[nH]c2ccc(OC)cc2c1NC(=O)CCN1CCSCC1	-5.8
CCOc1cc(/C=N/NC(=O)c2cccs2)ccc1OC(=O)N1CCOCC1	18.5
